In the supplement of paper PMC11417369:
± gives the standard deviation of the averaged measurements. The list shows a part of the results.

Tested on: PfAP2-LT AP2 domain (GST-tagged)
Experiment: gcPBM binding intensity (ln(normalized median fluorescence intensity)); higher = stronger DNA binding
In short: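 Binding of GST-tagged P. falciparum DNA-binding domains, expressed in E. coli and used at about 25 μg on average, was carried out for 1 h in 1× PBS containing 1% milk, 0.2 mg/ml BSA, 0.5% salmon testes DNA and 0.03% Triton X-100. The target was an Agilent 4 × 180k array of primer-extended double-stranded 36-bp intergenic genomic probes plus negative controls, read with Alexa488 anti-GST antibody at 488 nm. Binding intensity is the highest Masliner-normalised natural-log median intensity across replicate spots of either probe orientation.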

| Sequence | gcPBM binding intensity (ln) |
| --- | --- |
| ACCCTCATATTATAGACACACACAAAAAAAATAAAA [CACACA_site7941] | 9.24 ± 0.54 |
| TAAATACACCCTAGACGTACATAAAAATTTAGTATG [XGTACX_site2512] | 8.9 ± 0.42 |
| ATTAATAATGAGTTATGTACATACATATTTTAAGAT [XGTACX_site7543] | 8.81 ± 0.42 |
| AAATGTATAATATTTTCACACACAAGAAAAAAGAAA [CACACA_site9195] | 9.08 ± 0.41 |
| GCCAATAAAGATGTGGTGCATTATATATATATATAT | 9.38 ± 0.12 |
| TATCGAGCACGGCGTGTGGAGTTACAAAGAGGAGAA [CACACA_negctrl_site40] | 9.04 ± 0.63 |
| ATTTTTTTATAAAATTTTTATATATTATATAAATAT [GTGCAC_negctrl_site163] | 8.31 ± 0.5 |
| TAAAAATAGTATACAACACACGAGGGAAAATAAAGT [CACACA_site3837] | 9.42 ± 0.37 |
| ATAATATAAATATGCACACAAATTATTACCCAAAAA [CACACA_site2524] | 9.03 ± 0.41 |
| GTTATATTCCTACAGAGTACATAAAAATGCACATCA [XGTACX_site1948] | 8.62 ± 0.4 |
| AAATATAATATATGCACACATACATACAGATATATA [CACACA_site4235] | 9.1 ± 0.38 |
| ATAAATATAGGACACACACACATATTATATATATAT [CACACA_site5658] | 9.88 ± 0.3 |
| CACGCGAACATACATACACACACATATATATATATG [CACACA_site7951] | 9.69 ± 0.35 |
| CAAAATATATATACCACACACACATACCTCTATTTG [CACACA_site1853] | 9.775 ± 0.078 |
| ATATATTTTTTCTTAACACACATATATAAAATAAAA [CACACA_site3500] | 8.41 ± 0.41 |
| TATATATATATATACACACACACACCGATATATATA [CACACA_site8813] | 10 ± 0.11 |
| TATATAAAAAAACAAAGTACATGTTCTTAATCATTT [XGTACX_site8446] | 8.63 ± 0.39 |
| AAATGAACAAGTGGCACACACACATCATAACTAATT [CACACA_site5730] | 9.57 ± 0.39 |
| TATAATATAAGGATCACACACAAACACCCATATATA [CACACA_site4468] | 9.56 ± 0.18 |
| TCCATAAAAATGGATACACACACATAATATATATAT [CACACA_site9207] | 9.36 ± 0.37 |
| TTAATAACAAAATAAACACACATATATAAATACCCA [CACACA_site4960] | 9.11 ± 0.4 |
| CATACATACATACATACACACATACCTATATTTATA [CACACA_site6769] | 9.38 ± 0.33 |
| CTAGCAAATACATACACACACACACCGATACAGATA [CACACA_site5853] | 9.8 ± 0.18 |
| ATATATACATATATTACACACTTCTTATTCTAAGAA [CACACA_site3022] | 8.77 ± 0.44 |
| TATTTCATGATACAATGTACATGTATATATGATACC [XGTACX_site5057] | 8.88 ± 0.3 |
